Source: the supplement of paper PMC8728848
This is one part of the list.

How the values were obtained:
Experiment in all cases: glycan array binding signal (z-score within array); higher = stronger binding
Conditions in all cases: glycan notation: IUPAC condensed, linker removed
[1] = target: Gal(b1-3)GalNAc(a1-3)[Fuc(a1-2)]Gal(b1-4)GlcNAc
In short: (§1)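 Glycan array binding is given as a within-array Z-score, which can be read as non-binding when negative. The arrays, 3228 of them, came from the Consortium for Functional Glycomics database and were retained only where the protein sequence was available. Z-scores were averaged across arrays of the same protein sequence at different concentrations or buffers and across linkers.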

[2] = target: Gal(b1-3)GalNAc(b1-3)Gal(a1-4)Gal(b1-4)Glc
In short: as §1

[3] = target: Gal(b1-3)GalNAc(b1-4)Gal(b1-4)Glc
In short: as §1

[4] = target: Gal(b1-3)GalNAc(b1-4)[Neu5Ac(a2-3)]Gal(b1-4)Glc
In short: as §1

Gal(b1-3)GlcNAc = target: Gal(b1-3)GlcNAc
In short: as §1

[5] = target: Gal(b1-3)GlcNAc(a1-6)Gal(b1-4)GlcNAc
In short: as §1

[6] = target: Gal(b1-3)GlcNAc(b1-2)Man(a1-3)[Gal(b1-3)GlcNAc(b1-2)Man(a1-6)]Man(b1-4)GlcNAc(b1-4)GlcNAc
In short: as §1

[7] = target: Gal(b1-3)GlcNAc(b1-2)Man(a1-3)[Gal(b1-3)GlcNAc(b1-2)Man(a1-6)]Man(b1-4)GlcNAc(b1-4)[Fuc(a1-6)]GlcNAc
In short: as §1

[8] = target: Gal(b1-3)GlcNAc(b1-3)Gal(b1-3)GlcNAc
In short: as §1

[9] = target: Gal(b1-3)GlcNAc(b1-3)Gal(b1-4)Glc
In short: as §1

[10] = target: Gal(b1-3)GlcNAc(b1-3)Gal(b1-4)GlcNAc
In short: as §1

[11] = target: Gal(b1-3)GlcNAc(b1-3)Gal(b1-4)GlcNAc(b1-6)[Gal(b1-3)GlcNAc(b1-3)]Gal(b1-4)Glc
In short: as §1

[12] = target: Gal(b1-3)GlcNAc(b1-3)Gal(b1-4)[Fuc(a1-3)]GlcNAc(b1-6)[Gal(b1-3)GlcNAc(b1-3)]Gal(b1-4)Glc
In short: as §1

[13] = target: Gal(b1-3)GlcNAc(b1-3)GalNAc
In short: as §1

[14] = target: Gal(b1-3)GlcNAc(b1-6)Gal(b1-4)GlcNAc
In short: as §1

[15] = target: Gal(b1-3)[Fuc(a1-4)]GlcNAc
In short: as §1

[16] = target: Gal(b1-3)[Fuc(a1-4)]GlcNAc(b1-2)Man(a1-3)[Gal(b1-3)[Fuc(a1-4)]GlcNAc(b1-2)Man(a1-6)]Man(b1-4)GlcNAc(b1-4)GlcNAc
In short: as §1

[17] = target: Gal(b1-3)[Fuc(a1-4)]GlcNAc(b1-2)Man(a1-3)[Gal(b1-3)[Fuc(a1-4)]GlcNAc(b1-2)Man(a1-6)]Man(b1-4)GlcNAc(b1-4)[Fuc(a1-6)]GlcNAc
In short: as §1

[18] = target: Gal(b1-3)[Fuc(a1-4)]GlcNAc(b1-3)Gal(b1-3)[Fuc(a1-4)]GlcNAc
In short: as §1

[19] = target: Gal(b1-3)[Fuc(a1-4)]GlcNAc(b1-3)Gal(b1-4)GlcNAc
In short: as §1

[20] = target: Gal(b1-3)[Fuc(a1-4)]GlcNAc(b1-3)Gal(b1-4)[Fuc(a1-3)]GlcNAc
In short: as §1

[21] = target: Gal(b1-3)[GlcNAc(b1-6)]GalNAc
In short: as §1

[22] = target: Gal(b1-3)[Neu5Ac(a2-6)]GalNAc
In short: as §1

[23] = target: Gal(b1-3)[Neu5Ac(a2-6)]GlcNAc(b1-6)Gal(b1-4)Glc
In short: as §1

[24] = target: Gal(b1-3)[Neu5Ac(b2-6)]GalNAc
In short: as §1

[25] = target: Gal(b1-4)GalNAc(a1-3)[Fuc(a1-2)]Gal(b1-4)GlcNAc
In short: as §1

[26] = target: Gal(b1-4)GalNAc(b1-3)[Fuc(a1-2)]Gal(b1-4)GlcNAc
In short: as §1

Gal(b1-4)Glc = target: Gal(b1-4)Glc
In short: as §1

Gal(b1-4)Glc6S = target: Gal(b1-4)Glc6S
In short: as §1

Gal(b1-4)GlcNAc = target: Gal(b1-4)GlcNAc
In short: as §1

[27] = target: Gal(b1-4)GlcNAc(a1-6)Gal(b1-4)GlcNAc
In short: as §1

[28] = target: Gal(b1-4)GlcNAc(b1-2)Man(a1-3)Man(b1-4)GlcNAc(b1-4)GlcNAc
In short: as §1

[29] = target: Gal(b1-4)GlcNAc(b1-2)Man(a1-3)[Gal(b1-4)GlcNAc(b1-2)Man(a1-6)]Man(b1-4)GlcNAc(b1-4)GlcNAc
In short: as §1

[30] = target: Gal(b1-4)GlcNAc(b1-2)Man(a1-3)[Gal(b1-4)GlcNAc(b1-2)Man(a1-6)]Man(b1-4)GlcNAc(b1-4)[Fuc(a1-6)]GlcNAc
In short: as §1

[31] = target: Gal(b1-4)GlcNAc(b1-2)Man(a1-3)[GlcNAc(b1-2)Man(a1-6)]Man(b1-4)GlcNAc(b1-4)GlcNAc
In short: as §1

[32] = target: Gal(b1-4)GlcNAc(b1-2)Man(a1-3)[Man(a1-6)]Man(b1-4)GlcNAc(b1-4)GlcNAc
In short: as §1

[33] = target: Gal(b1-4)GlcNAc(b1-2)Man(a1-6)Man(b1-4)GlcNAc(b1-4)GlcNAc
In short: as §1

[34] = target: Gal(b1-4)GlcNAc(b1-2)Man(a1-6)[GlcNAc(b1-2)Man(a1-3)]Man(b1-4)GlcNAc(b1-4)GlcNAc
In short: as §1

[35] = target: Gal(b1-4)GlcNAc(b1-2)Man(a1-6)[Man(a1-3)]Man(b1-4)GlcNAc(b1-4)GlcNAc
In short: as §1

[36] = target: Gal(b1-4)GlcNAc(b1-2)[Gal(b1-4)GlcNAc(b1-4)]Man(a1-3)[Gal(b1-4)GlcNAc(b1-2)Man(a1-6)]Man(b1-4)GlcNAc(b1-4)GlcNAc
In short: as §1

[37] = target: Gal(b1-4)GlcNAc(b1-2)[Gal(b1-4)GlcNAc(b1-4)]Man(a1-3)[Gal(b1-4)GlcNAc(b1-2)[Gal(b1-4)GlcNAc(b1-6)]Man(a1-6)]Man(b1-4)GlcNAc(b1-4)GlcNAc
In short: as §1

[38] = target: Gal(b1-4)GlcNAc(b1-3)Gal(b1-3)GlcNAc
In short: as §1

[39] = target: Gal(b1-4)GlcNAc(b1-3)Gal(b1-4)Glc
In short: as §1

[40] = target: Gal(b1-4)GlcNAc(b1-3)Gal(b1-4)GlcNAc
In short: as §1

[41] = target: Gal(b1-4)GlcNAc(b1-3)Gal(b1-4)GlcNAc(b1-3)Gal(b1-4)GlcNAc
In short: as §1

B1: Ecp6 (Cladosporium fulvum), B3VBK9 (protein)
chain: MQSMILFAAALMGAAVNGFVLPRTDDPDCETKATDCGSTSNIKYTVVKGDTLTSIAKKFKSGICNIVSVNKLANPNLIELGATLIIPENCSNPDNKSCVSTPAEPTETCVPGLPGSYTIVSGDTLTNISQDFNITLDSLIAANTQIENPDAIDVGQIITVPVCPSSQCEAVGTYNIVAGDLFVDLAATYHTTIGQIKALNNNVNPSKLKVGQQIILPQDCKNVTTAVA
[1]
  glycan array binding signal (z-score): -0.086
[2]
  glycan array binding signal (z-score): -0.064
[3]
  glycan array binding signal (z-score): -0.093
[4]
  glycan array binding signal (z-score): -0.062
Gal(b1-3)GlcNAc
  glycan array binding signal (z-score): -0.088
[5]
  glycan array binding signal (z-score): -0.095
[6]
  glycan array binding signal (z-score): -0.096
[7]
  glycan array binding signal (z-score): -0.094
[8]
  glycan array binding signal (z-score): -0.083
[9]
  glycan array binding signal (z-score): -0.076
[10]
  glycan array binding signal (z-score): -0.08
[11]
  glycan array binding signal (z-score): -0.107
[12]
  glycan array binding signal (z-score): -0.122
[13]
  glycan array binding signal (z-score): -0.089
[14]
  glycan array binding signal (z-score): -0.085
[15]
  glycan array binding signal (z-score): -0.083
[16]
  glycan array binding signal (z-score): -0.039
[17]
  glycan array binding signal (z-score): -0.097
[18]
  glycan array binding signal (z-score): -0.086
[19]
  glycan array binding signal (z-score): -0.086
[20]
  glycan array binding signal (z-score): -0.093
[21]
  glycan array binding signal (z-score): -0.107
[22]
  glycan array binding signal (z-score): -0.091
[23]
  glycan array binding signal (z-score): -0.102
[24]
  glycan array binding signal (z-score): -0.094
[25]
  glycan array binding signal (z-score): -0.081
[26]
  glycan array binding signal (z-score): -0.078
Gal(b1-4)Glc
  glycan array binding signal (z-score): -0.083
Gal(b1-4)Glc6S
  glycan array binding signal (z-score): -0.079
Gal(b1-4)GlcNAc
  glycan array binding signal (z-score): -0.079
[27]
  glycan array binding signal (z-score): -0.109
[28]
  glycan array binding signal (z-score): -0.095
[29]
  glycan array binding signal (z-score): -0.084
[30]
  glycan array binding signal (z-score): -0.1
[31]
  glycan array binding signal (z-score): -0.092
[32]
  glycan array binding signal (z-score): -0.097
[33]
  glycan array binding signal (z-score): -0.111
[34]
  glycan array binding signal (z-score): -0.106
[35]
  glycan array binding signal (z-score): -0.103
[36]
  glycan array binding signal (z-score): -0.087
[37]
  glycan array binding signal (z-score): -0.107
[38]
  glycan array binding signal (z-score): -0.094
[39]
  glycan array binding signal (z-score): -0.084
[40]
  glycan array binding signal (z-score): -0.083
[41]
  glycan array binding signal (z-score): -0.085
